Our source for the survival values is PubChem BioAssay AID463173 (ICCB-Longwood Screening Facility, Harvard Medical School, 2010).

The campaign covered roughly 52,000 compounds. About 1,700 (3.3%) were called active. Cut-off read from the data, not from the text of the source: active = survival mostly below about 52% (no sharp cut-off); inactive = mostly above about 56%. This is one part of the list.

This assay concerns Wild type. Kind of assay: S. aureus survival, RN4220 and DeltatarO strains – OD600, teichoic acid synthesis inhibitors, primary screen (AID 463173). Particulars: S. aureus RN4220 wild type/DeltatarO growth, OD600, 18 h, stronger effect = lower value; concentration not given here unless noted.
As for `CCOc1ccc2nc(NC(=O)c3cccn(Cc4ccc(C)cc4)c3=O)sc2c1`, the survival was inactive: 76%. The figure for `O=C(Nc1ccc(F)c(Cl)c1)N(Cc1ccc2c(c1)OCO2)C1CCN(Cc2ccccc2)CC1` is inactive: 74%; for `Nc1c(C(=O)Nc2ccc(F)c(Cl)c2)sc2nc3c(cc12)N1CCC3CC1` it is inactive: 105%.

For the molecule `O=C(Nc1ccc2c(c1)OCO2)c1cccn(Cc2ccccc2)c1=O`, the survival is inactive: 68%.

For the molecule `O=C(Nc1ccon1)c1cccn(Cc2cccc([N+](=O)[O-])c2)c1=O`, the survival was inactive: 135%. The figure for `O=C(Nc1ccccc1)N(Cc1ccc2c(c1)OCO2)C1CCN(Cc2ccccc2)CC1` is inactive: 78%; for `COC(=O)c1ccccc1NC(=O)c1cccn(Cc2cccc(Cl)c2)c1=O` it is inactive: 75%. As for `CC1CN2CCC3=C(CCCC3)C2(C)C1` (centres undefined), the figure is inactive: 95%. As for `O=c1c2ccccc2nc(CN2CCCCC2)n1-c1ccccc1`, the figure is inactive: 105%; as for `CC12CN3CN(C1)CC(C)(C3)C2=O`, inactive: 107%. On to `O=c1c2ccccc2[nH]c(=S)n1-c1ccccc1`, for which the survival is inactive: 108%. As for `CN1CCC2(CC1)CC(NC=O)c1ccccc1O2` (centres undefined), the figure is inactive: 108%; as for `Cc1ccc(-c2nc(CN3C(=O)CN=C(c4ccccc4Cl)c4cc(Cl)ccc43)c(C)o2)cc1`, inactive: 90%; as for `COc1ccc(C=C2C(=O)NC(=S)NC2=O)cc1`, inactive: 96%. The figure for `O=C(Nc1ccc2c(c1)OCCO2)c1cccn(Cc2ccccc2)c1=O` is inactive: 85%; for `c1ccc(CN2CCNCC2)nc1` it is inactive: 100%; for `COc1ccc(C(CN)CC(=O)O)cc1` (centres undefined) it is inactive: 112%. As for `Cc1cccc(Cn2cccc(C(=O)Nc3nnc(C)s3)c2=O)c1`, the figure is inactive: 71%; as for `Cc1ccc(NC(=O)CN2C(=O)CN=C(c3ccccc3)c3ccccc32)cc1Cl`, inactive: 127%; as for `O=C(Cc1ccccc1)N1CCN(C2CCCC2)CC1`, inactive: 103%. With `N#Cc1cc2c(nc1SCC(=O)Nc1cccc(C(F)(F)F)c1)C1CCN2CC1`, the survival is active: 0%. As for `COc1ccc(C(c2c(O)c3ccccc3oc2=O)c2c(C)n(C)n(-c3ccccc3)c2=O)cc1` (centres undefined), the figure is inactive: 61%; as for `CCSc1nnc(NC(=O)c2cccn(Cc3ccccc3Cl)c2=O)s1`, inactive: 71%. In the case of `CCOc1ccccc1NC(=O)c1cccn(Cc2ccccc2C)c1=O`, the survival is inactive: 82%. The figure for `O=CNc1nonc1NNc1nonc1NC=O` is inactive: 100%. As for `CC(=O)c1cccc(NC(=O)c2cccn(Cc3cccc(C)c3)c2=O)c1`, the survival was inactive: 82%. Consider `OC1(c2cccc(F)c2)CC2CCC(C1)N2Cc1nnnn1CCc1ccccc1` (centres undefined), for which the survival was inactive: 105%. As for `COc1ccc(NC(=O)CN2C(=O)C(C)N=C(c3ccccc3)c3ccccc32)cc1OC` (centres undefined), the figure is inactive: 127%; as for `Cc1ccc(Cn2cccc(C(=O)Nc3nc4ccc(C)cc4s3)c2=O)cc1`, inactive: 127%; as for `Cc1c(/C(CC(C)C)=N/O)c2ccccc2n1C`, inactive: 113%.

Consider `O=C(O)C12C3CCCC1C32c1ccccc1` (centres undefined), for which the survival is inactive: 111%. As for `CCc1ccc(-n2nc(C)c3c2NC(=O)CSC3c2ccccc2C)cc1` (centres undefined), the figure is inactive: 84%; as for `Cc1[nH]c2c(C)cccc2c1CCN`, inactive: 129%; as for `Cc1ccc(OCC(=O)Nc2ccc(Cl)cc2C(=O)c2ccccc2)c(Br)c1`, inactive: 84%. As for `Cc1cc(C)cc(NC(=O)CN2C(=O)CN=C(c3ccccc3)c3cc(Cl)ccc32)c1`, the survival is inactive: 82%. The figure for `O=C(COc1ccc(Br)cc1)Nc1ccc(Cl)cc1C(=O)c1ccccc1` is inactive: 72%. In the case of `c1cnc2c(c1)ncn2C1CCNCC1`, the survival was inactive: 84%.

`COc1ccc(CCNC2CCCCC2)cc1OC`: the survival was inactive: 117%. As for `COc1cccc(-n2c(/C=C\c3ccc(Cl)cc3)nc3ccccc3c2=O)c1`, the figure is inactive: 48%; as for `Cc1ccc(C(C)(C)C)c(OCC(=O)Nc2ccc(Cl)cc2C(=O)c2ccccc2)c1`, inactive: 65%; as for `CCN1CCN(Cc2nnnn2C(C)(C)C)CC1`, inactive: 95%.

As for `Cc1ccnc(NS(=O)(=O)c2ccc(N=Cc3c(O)n(C)c(=O)n(C)c3=O)cc2)n1`, the survival was inactive: 96%. On to `COc1ccc(C(C(=O)NC2CCCCC2)N(CCN2CCOCC2)C(=O)Cc2c[nH]c3ccccc23)cc1OC` (centres undefined), for which the survival is inactive: 105%. As to `Cc1ccc(OCC(=O)N2CCN(Cc3ccc(F)cc3)CC2)cc1`, the survival is inactive: 126%. As for `Cc1cccc(OCC(=O)N2CCN(Cc3cc(=O)n4nc(-c5ccccc5Cl)sc4n3)CC2)c1`, the figure is inactive: 97%.

As for `CCC12CN3CN(C1)CC(CC)(C3)C2O` (centres undefined), the survival is inactive: 106%. As for `Cc1ccccc1-c1nn2c(=O)cc(CN3CCN(C(=O)COc4ccccc4Cl)CC3)nc2s1`, the figure is inactive: 140%; as for `CCC(N)C(=O)c1ccc(Cl)cc1` (centres undefined), inactive: 105%; as for `Cc1ccc(-n2c(/C=C\c3ccc(F)c(F)c3)nc3ccccc3c2=O)c(C)c1`, inactive: 68%. The figure for `O=C1NC(=O)C(CCc2ccncc2)(c2ccccc2)C(=O)N1` is inactive: 106%; for `COc1cccc(N=Cc2c(O)n(Cc3ccco3)c(=O)[nH]c2=O)c1` it is inactive: 102%; for `Cc1ccc2nc(NC(=O)c3cccn(Cc4ccccc4F)c3=O)sc2c1` it is inactive: 88%. As for `Cc1ccc2c(=O)n(-c3cccc(Cl)c3)c(=O)[nH]c2c1`, the figure is inactive: 76%. In the case of `COc1cc2[nH]c(=O)n(-c3ccc(C)cc3)c(=O)c2cc1OC`, the survival was inactive: 71%. Consider `CCN(CC)C(=O)c1ccc(NC(=O)COc2ccc(-c3nn(C)c(=O)c4ccccc34)cc2)cc1`, for which the survival is inactive: 93%. The figure for `C=CCN1C(=O)NC(=O)/C(=C/c2ccc(OCC(=O)O)c(OCC)c2)C1=O` is inactive: 100%. Turning to `CN1CCC(NCCO)CC1`, the survival was inactive: 105%. Take `Cc1ccccc1-c1nc(CN2C(=O)CN=C(c3ccccc3)c3ccccc32)c(C)o1`: the survival is active: 2%. With `COc1ccccc1-c1nn2c(=O)cc(CN3CCN(C(=O)COc4ccccc4Cl)CC3)nc2s1`, the survival was inactive: 85%. As for `CCc1ccc(-n2nc(C)c3c2NC(=O)CSC3c2ccc(C(=O)OC)cc2)cc1` (centres undefined), the figure is inactive: 89%; as for `CN1CCC2(CC1)CC(=O)c1ccccc1O2`, inactive: 107%; as for `O=C(Nc1ccc(Br)cc1C(=O)c1ccccc1Cl)c1ccc(Br)cc1`, inactive: 136%. The figure for `COc1cc(OC)cc(C(=O)Nc2ccc(Cl)cc2C(=O)c2ccccc2Cl)c1` is inactive: 139%; for `CCC12CN3CC(CC)(CN(C1)C3c1c(C)[nH]c(=O)[nH]c1=O)C2=O` (centres undefined) it is inactive: 88%; for `O=C(O)c1cncc(O)c1` it is inactive: 105%. The figure for `O=c1c2ccccc2nc(/C=C/c2cccc3ccccc23)n1-c1ccc(Cl)cc1` is inactive: 80%. For the molecule `CC(C(=O)c1ccc2ccccc2c1)N1CCCCC1` (centres undefined), the survival is inactive: 107%. As for `COc1ccc(OCC(=O)N2CCN(CCc3ccncc3)CC2)cc1`, the figure is inactive: 89%; as for `O=C(O)CCC1C(=O)NC(=O)NC1=O`, inactive: 112%; as for `Cc1ccccc1-n1c(/C=C/c2c(C)[nH]c3ccccc23)nc2ccccc2c1=O`, active: 6%.

As to `Cc1ccccc1-n1nc(C)c2c1NC(=O)CSC2c1ccc(Cl)cc1` (centres undefined), the survival is inactive: 44%. The figure for `CNC(=O)Oc1c(Br)cc2sc(=O)oc2c1Br` is inactive: 112%; for `CN1CCCSC1=Nc1ccccc1F` it is inactive: 110%; for `Cc1ccc(Cn2cccc(C(=O)Nc3cc(C)on3)c2=O)cc1` it is inactive: 81%. The figure for `Cc1c(C(c2ccc(Br)cc2)c2c(O)c3ccccc3oc2=O)c(=O)n(-c2ccccc2)n1C` (centres undefined) is inactive: 69%; for `O=C(Cn1cc(C(=O)c2ccccc2)c2ccccc21)NCc1ccco1` it is inactive: 104%; for `Cc1cccc(-n2c(-c3ccco3)nc3ccccc3c2=O)c1` it is inactive: 96%. The figure for `CN(C)c1ccc(NC(=O)c2sc3nc4c(cc3c2N)N2CCC4CC2)cc1` is inactive: 114%; for `COc1ccc(Cc2c(O)[nH]c(=S)[nH]c2=O)cc1` it is inactive: 116%. For `Cn1c(O)c(C=NCCN2CCN(C(=O)c3ccccc3)CC2)c(=O)n(C)c1=O`, the survival was inactive: 110%. With `CCNCC1(c2ccc(OC)c(OC)c2)CCCC1`, the survival is inactive: 112%. As for `CCCC12CN3CC(C)(CN(C1)C3c1c(C)[nH]c(=O)[nH]c1=O)C2=O` (centres undefined), the figure is inactive: 92%; as for `O=C(COc1ccccc1)N1CCN(CC(O)COc2ccccc2)CC1` (centres undefined), inactive: 111%; as for `CCCC1=Nc2cc(C(=O)NCCCN(CC)CC)ccc2Sc2ccccc21`, inactive: 116%. As to `COc1ccc(Br)cc1C1SCC(=O)Nc2c1c(C)nn2-c1ccccc1C` (centres undefined), the survival is inactive: 68%. As for `Cc1ccc(-c2nn3c(=O)cc(CN4CCN(C(=O)COc5ccc(C)c(C)c5)CC4)nc3s2)cc1`, the figure is inactive: 71%; as for `CN1CCN(Cc2cn3ccccc3n2)CC1`, inactive: 119%; as for `CCCC1(CCC)C(=O)NC(=Nc2ccccc2)NC1=O`, inactive: 107%.

In the case of `Cc1ccc(-c2nc(CN3C(=O)CN=C(c4ccccc4)c4ccccc43)c(C)o2)cc1`, the survival was inactive: 72%. As for `CCN(CC)C(=O)c1ccc(NC(=O)c2ccc(-c3nn(C)c(=O)c4ccccc34)cc2)cc1`, the figure is inactive: 66%; as for `Cc1ccc(Cn2cccc(C(=O)Nc3ccc4c(c3)OCCO4)c2=O)cc1`, inactive: 72%; as for `COC(=O)C1=C(C)OC(N)=C(C#N)C12C(=O)Nc1ccc(C)cc12` (centres undefined), inactive: 96%. As for `COc1ccccc1C1SCC(=O)Nc2c1c(C)nn2-c1cccc(C)c1` (centres undefined), the figure is active: -10%; as for `COc1cccc(NC(=O)c2cccn(Cc3ccccc3C)c2=O)c1`, inactive: 77%. Turning to `OC1(c2cccnc2)CCNCC1`, the survival is inactive: 112%.

`CCC(C)N1CCN(Cc2ccccc2)CC1` (centres undefined): the survival was inactive: 111%.

As for `CCCCC12CN3CC(C)(CN(C1)C3c1ccccn1)C2=O` (centres undefined), the survival is inactive: 87%. As for `Cc1cccc(-n2nc(C)c3c2NC(=O)CSC3c2ccccc2Cl)c1` (centres undefined), the figure is inactive: 64%; as for `CCOc1ccc(CN(CCc2ccc3c(c2)OCO3)Cc2ccc(C)cc2)cc1`, inactive: 35%.
